PubChem BioAssay AID686979 (National Center for Advancing Translational Sciences (NCATS), 2013)
The campaign covered roughly 420,000 compounds. About 50,000 (12%) were called active. This list was built around the results that the source calls inconclusive (neither active nor inactive); the mix of calls is not that of the screen. The call rests on the fitted dose curve; in most records, active means well fitted inhibition curve with a large enough effect; inconclusive means small, poorly fitted or top-dose-only effect; inactive means flat fitted curve, though single readings scatter. Potencies of inconclusive entries are left out as doubtful fits.

assay: qHTS for Inhibitors of human tyrosyl-DNA phosphodiesterase 1 (TDP1): qHTS in cells in presence of CPT; conditions: chicken DT40 Tdp1-/-;hTDP1 cells + 20 nM CPT, ATP luminescence, 48 h; activity change, negative = growth inhibition: at 46.2 µM (top of the series) unless noted; further: nearly all actives have a fitted effect of over 55% in size
Outline: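 Chicken DT40 Tdp1-/- cells stably complemented with human TDP1 were seeded at 400 cells/well in medium containing 20 nM camptothecin, exposed to pin-transferred compounds, and grown at 37 °C for at least 48 hr. Viability was read as ATP luminescence.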
On the % scale 0 is the no-effect control and ±100 the full control effect; potency means the concentration at half of the fitted maximal effect; tags describe the fitted curve by direction and shape.

Structure (SMILES) | Potency | activity change, negative = growth inhibition
O=C(c1ccccc1Sc1cccc2ccccc12)N1CCOCC1 | active: 13 µM | –
CCN(C(=O)c1ccc(S(C)(=O)=O)cc1)C12CC3CC(CC(C3)C1)C2 | inconclusive [inhibitor, single point] | –
CSc1ccc(Cl)c(C(=O)NCCOc2cc(C(C)C)ccc2C)c1 | active: 29.1 µM | –
Cc1ccccc1S(=O)(=O)NC(=O)C1(C)CCN1C(=O)CC(c1ccccc1)c1ccccc1 (configuration not stated) | active: 5.8 µM | –
c1csc(CNc2ccnc(-c3ccc4c(c3)OCO4)n2)c1 | inconclusive [inhibitor, single point] | –
COCCN(CCOC)C(=O)c1ccc(CSc2nc3ccccc3s2)cc1 | inconclusive [inhibitor, single point] | –
O=C1CCN(Cc2ccc(O)cc2)CCN1[C@H](CO)c1ccccc1 | inactive | –
O=C(O)C1CCCCC1C(=O)Nc1ccccc1Nc1ccccc1 (configuration not stated) | inconclusive [inhibitor, single point] | –
COc1cccc(N(CC(=O)N2CCN(C)CC2)S(=O)(=O)c2ccccc2)c1 | inactive | –
Cc1ccccc1Nc1nc(N)nc(CSCC(=O)Nc2cccc(Br)c2)n1 | inconclusive [inhibitor, single point] | –
COc1ccc(Cl)cc1NC(=O)C1Cc2cc(S(=O)(=O)N3CCCC3)ccc2N1C(C)=O (configuration not stated) | inconclusive [inhibitor, single point] | –
Cc1ccn2c(=O)c(C(=O)NCCC3=CCCCC3)c(O)nc2c1 | active: 23.1 µM | –
COCCNC(=O)c1c(C)oc2nc(C)nc(N3CCOCC3)c12 | inactive | –
COc1ccc(N(CC(=O)Nc2cccc(C)c2)S(=O)(=O)c2c(C)noc2C)cc1 | inconclusive [inhibitor, single point] | –
S=C(NCc1ccccn1)NN=Cc1ccccn1 | active: 0.146 µM | –
CCSc1nnc(-c2ccncc2)o1 | inactive | –
CCOCCOC(=O)C1=C(C)Nc2ccc(C)cc2S1 | inactive | –
CCOC(=O)c1cccc(NC(=O)c2ccc3c(Cl)c4c(nc3c2)CCC4)c1 | inconclusive [inhibitor, single point] | –
NC(=O)c1ccc(N2CCN(S(=O)(=O)c3ccccc3)CC2)c([N+](=O)[O-])c1 | inconclusive [inhibitor, full curve] | –
O=C(O)C(c1ccccc1)C(O)C1CCCC1 (configuration not stated) | inactive | –
COc1ccc([N+](=O)[O-])cc1-c1nc2ccccc2nc1-c1ccccc1 | inconclusive [inhibitor, single point] | –
CCOC(=O)c1c(NC(=O)c2ccccc2Cl)sc2c1CCCC2 | inconclusive [inhibitor, single point] | –
O=C(NNS(=O)(=O)c1ccccc1[N+](=O)[O-])c1ccc(F)cc1 | inconclusive [inhibitor, single point] | –
O=C(NC1CCCCCC1)C1CCN(S(=O)(=O)c2cccc3cccnc23)CC1 | inactive | –

Structure (SMILES) | Potency | activity change, negative = growth inhibition
CCCc1nc([N+](=O)[O-])c(S(=O)(=O)c2ccccc2)n1CC(C)C | active: 16.4 µM | –
COCC1CCCN(C(=O)c2ccc3oc(CCCc4ccccc4)nc3c2)C1 (configuration not stated) | inconclusive [inhibitor, partial curve] | –
COc1ccccc1OCc1nnc(SCC(=O)N2CCCCC2)n1-c1ccccc1 | inconclusive [inhibitor, partial curve] | –
O=C(CS(=O)(=O)c1ccccc1)Nc1ccc(Br)cn1 | inconclusive [inhibitor, full curve, poor fit] | –
Cc1ccc(CN2C(=O)C(O)(c3c[nH]c4ccccc34)c3cc(Cl)ccc32)cc1 (configuration not stated) | inconclusive [inhibitor, single point] | –
COc1ccc2c(c1)c(CC(=O)O)c(C)n2C(=O)c1ccc(Cl)cc1 | inconclusive [inhibitor, single point] | –
CCOc1cc(-c2nc3c(c(CC)nn3-c3ccccc3)c3cc(OC)c(OC)cc23)ccc1O | active: 3.26 µM | –
O=C(NCCCc1ccccc1)C1CC1 | inactive | –
CCOC(=O)[C@@H]1[C@H]2COc3ccc(Br)cc3[C@H]2N2C(=O)N(c3ccc(C)cc3)C(=O)[C@]12C | inconclusive [inhibitor, single point] | –
CCOC(=O)c1c(-c2ccccc2)csc1NC(=O)/C(C#N)=C/c1ccc(O)c(OC)c1 | inconclusive [inhibitor, single point] | –
O=C(c1ccoc1)N1CCC2(CCCN(Cc3ccc(F)c(F)c3)C2)C1 (configuration not stated) | inconclusive [inhibitor, single point] | –
O=C1COc2ccc(C(=O)CSc3ccc(Br)cc3)cc2N1 | inconclusive [inhibitor, single point] | –
C=CCn1c(=O)c2c(C)c(C)sc2n2c(Nc3ccccc3)nnc12 | active: 23.1 µM | –
COC(=O)C1SCC2C(=O)N(Cc3ccc(Cl)c(Cl)c3)CC(=O)N21 (configuration not stated) | active: 23.1 µM | –
Cc1n[nH]c(C)c1C(=O)CC1(O)C(=O)N(Cc2ccccc2)c2ccc(Br)cc21 (configuration not stated) | inconclusive [inhibitor, single point] | –
COc1ccc(N(C)C(=O)c2cc3c(Cl)nc4ccccc4c3s2)cc1 | inconclusive [inhibitor, single point] | –
COc1ccc(OCC(O)CNCCOc2ccccc2OC)c(C(C)(C)C)c1 (configuration not stated) | active: 10.3 µM | –
CCOC(=O)C(CC)Sc1nnc2c3cc(C)ccc3n(C)c2n1 (configuration not stated) | inconclusive [inhibitor, partial curve] | –
Cc1ccc2c(c1)c1c(n2CC(O)CN2CCC(C)CC2)CCCC1 (configuration not stated) | inconclusive [inhibitor, single point] | –
CC(C)(C)n1[nH]c2c3c(ccc2c1=O)C(=O)c1ccccc1C3=O | active: 8.2 µM | –
CN(C)CCCOC(=O)N1c2ccccc2C=Cc2ccccc21 | inconclusive [inhibitor, full curve, poor fit] | –
Cc1ccc2c(c1)NC(c1cccnc1)=NC(c1ccc(F)cc1)=N2 | inconclusive [inhibitor, partial curve, poor fit] | –
COc1ccc(C)cc1N(C(=O)c1ccccc1F)c1nc2ccccc2s1 | inconclusive [inhibitor, single point] | –
Cc1ccc(-c2c3c(=O)n(C)c(=O)n(C)c3cn2-c2ccccc2O)cc1 | inactive | –

Structure (SMILES) | Potency | activity change, negative = growth inhibition
Cc1nn(C)cc1CNc1nc(C)c(-c2ccn(CC3COc4ccccc4O3)n2)s1 (configuration not stated) | inconclusive [inhibitor, full curve, poor fit] | –
COc1ccc(C(=O)N2CCOC23CCN(c2ncccn2)CC3)cc1 | inactive | –
O=C(N/N=C/c1ccc[nH]1)c1cccc([N+](=O)[O-])c1 | inactive | –
COCCN1C(=O)c2oc3ccccc3c(=O)c2C1c1ccc(OC)c(OC)c1 (configuration not stated) | inactive | –
COc1cc(C2NC(=O)NC(C)=C2C(=O)OCC2CCCO2)ccc1O (configuration not stated) | inactive | –
O=C(Cc1cccc2ccccc12)NCC(=O)Nc1ccccc1F | inactive | –
CC(=O)c1cc2c(cc1NC(=O)CCc1c(C)nc3ncnn3c1C)OCO2 | inactive | –
CCN(CC)CCN(C(=O)c1cc2ccccc2cc1OC)c1nc2ccc(OC)cc2s1 | inconclusive [inhibitor, single point] | –
O=C(CSc1ncccn1)Nc1cccc(S(=O)(=O)N2CCOCC2)c1 | inactive | –
CCN(CC(=O)NCc1ccc(Cl)cc1)C(=O)COc1ccc(C)cc1C | inconclusive [inhibitor, single point] | –
C=CCn1c(=N)c(C(=O)NCCCOC)cc2c(=O)n3cccc(C)c3nc21 | inconclusive [inhibitor, single point] | –
CCOC(=O)C(CC)n1nc(C)n2c(cc3occc32)c1=O (configuration not stated) | – | inconclusive: -34.3% [inhibitor]
COc1ccc(-c2cn3c4c(sc3n2)CCCC4)cc1 | inactive | –
O=c1[nH]c(CSc2ccccc2)nc2c1oc1ccccc12 | inconclusive [inhibitor, partial curve, poor fit] | –
CCOc1ccc2nc3ccc4[nH]onc4c3c2c1 | inconclusive [inhibitor, single point] | –
COc1ccc(C(=O)COC(=O)c2cccc(NC(=O)c3ccc(OC)c(OC)c3)c2)cc1 | active: 18.4 µM | –
COc1cc(/C=N/Nc2snc(SC)c2C#N)cc(OC)c1OC | inconclusive [inhibitor, full curve] | –
COc1ccc(C2C(C#N)=C(N)OC3=C2C(=O)CC(C)(C)C3)cc1Cn1cc([N+](=O)[O-])cn1 (configuration not stated) | inconclusive [inhibitor, single point] | –
CCOC(=O)[C@]12CCCC=C1N(Cc1ccccc1)C(=O)[C@H](CC(=O)NCC13CC4CC(CC(C4)C1)C3)C2 | inconclusive [inhibitor, single point] | –
CCCCN(C(=O)CSCC(=O)Nc1ccc(C)cc1)c1c(N)n(Cc2ccccc2)c(=O)[nH]c1=O | inactive | –
Cc1csc2nc(-c3cccc(NC(=O)c4ccccc4Cl)c3)cn12 | active: 18.4 µM | –
Cc1ccc(-c2nc3ccccn3c2Nc2ccc3c(c2)OCO3)cc1 | inconclusive [inhibitor, single point] | –
Cc1ccc(O)c(C(=O)c2cnc3onc(-c4ccc(F)cc4)c3c2)c1 | inconclusive [inhibitor, single point] | –
CCCC(=O)NC(Nc1c(C)n(C)n(-c2ccccc2)c1=O)C(Cl)(Cl)Cl (configuration not stated) | inactive | –
